# Assay results taken from the supplement of paper PMC10126150.
# Sequences with one replicate were seen in a single cluster, so their values are uncertain.
# System: ATP
# Assay: switch fluorescence ratio, 500 uM ATP over buffer (Cy3 cluster intensity, sum of 5 cycles each) (fold (ratio)); higher = stronger signal-on switching upon ATP binding; sequences stand for … in TCGTCGGCAGCGTCAGATGTGTATAAGAGACAGTTTTTTTTTTTTTTTTTTTTTTTTT…TC
# Details: aptamer strand: ATP DNA aptamer (quencher-CACCTGGGGGAGTATTGCGGAGGAAGG + anchor), 100 nM annealed; ATP concentration: 500 uM; one replicate
# Summary of the method: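 For every switch-domain sequence, the fluorescence ratio is the mean of per-cluster values, each being summed target-cycle Cy3 intensity over summed buffer-cycle Cy3 intensity. Clusters outside 100-1000 RFU were excluded. On a modified Illumina MiSeq flow-cell, the Cy3-labelled switching-strand clusters were annealed to 100 nM quencher-labelled ATP aptamer, imaged in selection buffer and then after 15 min with 500 uM ATP at 22 °C. Five such cycles were run, with NaOH stripping and re-annealing between them.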
# 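Also: ATP exposure 15 min at 22 °C before imaging.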
row,Sequence,switch fluorescence ratio
1,TCTGTGCAGC,1.08
2,TCTGTGTACT,0.952
3,TCTGTTAAAT,1
4,TCTGTTAAC,1.01
5,TCTGTTCCCG,0.975
6,TCTGTTTGT,1.03
7,TCTTAAGTT,1.01
8,TCTTACACAT,1.02
9,TCTTACACGG,1.02
10,TCTTACAGCG,0.963
11,TCTTACGGCG,1
12,TCTTAGCCAT,1.26
13,TCTTAGCGTA,0.987
14,TCTTAGCTGC,2.97
15,TCTTAGGGGG,1.02
16,TCTTATGTA,0.969
17,TCTTATTGT,0.997
18,TCTTCAAAT,0.978
19,TCTTCCACTA,1.08
20,TCTTCGTTGA,0.985
21,TCTTCTGATA,1.02
22,TCTTGAATAT,0.976
23,TCTTGAATGC,1.02
24,TCTTGCTGTT,0.959
25,TCTTGGGAGT,0.957
26,TCTTGTAAAA,0.971

row,Sequence,switch fluorescence ratio
1,TCTTTACACC,1.15
2,TCTTTATCGG,0.985
3,TCTTTGAGCA,0.993
4,TCTTTGGGCG,1
5,TCTTTTCTAA,1
6,TCTTTTTTCG,1.02
7,TCTTTTTTCT,1.01
8,TGAAAAAAGC,1.02
9,TGAAAATCGC,1.01
10,TGAAACGCCC,1.15
11,TGAAACTCCG,1.14
12,TGAAACTCTC,1.04
13,TGAAAGGTGT,0.962
14,TGAAATAGAT,0.955
15,TGAAATAGTT,0.962
16,TGAAATTTCG,0.963
17,TGAACAGATA,1.03
18,TGAACCCAAA,0.995
19,TGAACCTCGG,0.992
20,TGAACGGGAC,0.976
21,TGAACTGCAC,1.61
22,TGAACTGTCC,1.2
23,TGAAGAGCTG,1.02
24,TGAAGCCCGG,0.982
25,TGAAGCTCGT,1.02
26,TGAAGGCCAG,1.01

row,Sequence,switch fluorescence ratio
1,TGAAGTAAAG,0.999
2,TGAAGTCTAG,0.976
3,TGAAGTTGAG,1.01
4,TGAAGTTGGA,1.49
5,TGAAGTTTC,1.23
6,TGAATAAGTT,1.02
7,TGAATACATG,0.944
8,TGAATATGAC,1.05
9,TGAATCCCTT,1.04
10,TGAATCCGCC,5.97
11,TGAATGAGTC,0.996
12,TGAATTAACG,1.08
13,TGAATTAGGC,0.929
14,TGAATTCA,0.969
15,TGACACATTA,1.08
16,TGACACTTCG,0.939
17,TGACAGCTGG,0.939
18,TGACATATA,1.15
19,TGACATCGCT,0.968
20,TGACATTTGG,0.968
21,TGACCAGCAC,1.2
22,TGACCCAGTA,1
23,TGACCCCTGC,1.19
24,TGACCGGGTC,1.01
25,TGACCGGGTT,0.999
26,TGACCGTGGT,1

row,Sequence,switch fluorescence ratio
1,TGACCTAGCT,1.05
2,TGACCTCACG,1.2
3,TGACCTCGGG,1.01
4,TGACGATT,0.964
5,TGACGCAACT,5.26
6,TGACGCCGGT,1.05
7,TGACGGACTG,1.03
8,TGACGTTACT,1.31
9,TGACTACATC,1.09
10,TGACTAGCCT,1.07
11,TGACTAGCGG,0.931
12,TGACTATGAG,0.98
13,TGACTCAAGA,1.19
14,TGACTCAGAG,1.03
15,TGACTCTAGC,1.06
16,TGACTGAACT,1.08
17,TGACTGGACC,1.29
18,TGACTGGCGG,1.04
19,TGACTGTACT,1.53
20,TGACTGTTGC,0.983
21,TGACTGTTGT,1
22,TGACTTTTGC,0.987
23,TGACTTTTTT,1
24,TGAGAAAATA,0.99
25,TGAGAAGTCG,0.908
26,TGAGAATACC,1.03

row,Sequence,switch fluorescence ratio
1,TGAGAATTGC,1.02
2,TGAGACTTCG,0.957
3,TGAGAGATAT,0.982
4,TGAGAGCCAA,1.01
5,TGAGATGAGA,0.983
6,TGAGATTGAT,1
7,TGAGATTTGG,0.951
8,TGAGCATACT,2.96
9,TGAGCATCGG,1.03
10,TGAGCATGGT,1.03
11,TGAGCGTTGA,0.988
12,TGAGCTCGT,1.04
13,TGAGCTGAGC,1.04
14,TGAGGAAATC,2.31
15,TGAGGAAGTT,1.02
16,TGAGGCAAGC,2.64
17,TGAGGGGA,1.03
18,TGAGGGTC,1.06
19,TGAGGGTTT,1.02
20,TGAGGTAAAA,1
21,TGAGGTCGCA,1.02
22,TGAGGTGTGA,1.06
23,TGAGGTTCAT,1.01
24,TGAGTCATTG,1.07
25,TGAGTCTTCT,0.963
26,TGAGTGGGTG,1.02

row,Sequence,switch fluorescence ratio
1,TGAGTGTGAT,0.998
2,TGAGTTAGCG,1.04
3,TGAGTTGGG,0.975
4,TGAGTTTTGA,0.982
5,TGATAAACAG,1.04
6,TGATAAAGGC,1.07
7,TGATAAGGGC,1.02
8,TGATAAGTCT,0.987
9,TGATAGAACC,1.04
10,TGATATCCAA,1.02
11,TGATATTGTC,1.02
12,TGATCATAAA,0.955
13,TGATCCAATC,1
14,TGATCCCCGG,1.08
15,TGATCCGTAA,2.91
16,TGATCGCTGC,1.49
17,TGATCGTAAC,1.07
18,TGATCTACCT,1.22
19,TGATCTAGAA,1.02
20,TGATGCCATT,1.01
21,TGATGCGAGA,0.984
22,TGATGGGTCG,0.982
23,TGATGGTTTG,0.997
24,TGATGTAATT,1.01
25,TGATGTAGTT,0.991
26,TGATGTAT,1.02

row,Sequence,switch fluorescence ratio
1,TGATGTTG,0.996
2,TGATTAACCA,1.02
3,TGATTAATCG,0.987
4,TGATTGTAC,1.08
5,TGATTGTCGT,0.98
6,TGATTTGCGG,0.956
7,TGCAAAGGAG,0.981
8,TGCAATATCA,1.41
9,TGCAATCTTG,1.03
10,TGCACAACTA,1.05
11,TGCACCGCTA,1.09
12,TGCACGTTGT,1.07
13,TGCACTGTCG,1.02
14,TGCACTTTGT,0.965
15,TGCAGACATT,0.988
16,TGCAGACCGT,1
17,TGCAGATTAA,0.99
18,TGCAGCAGCA,1.02
19,TGCAGCGGCA,1
20,TGCAGGCTTG,0.992
21,TGCAGGTACT,1.11
22,TGCAGGTGAT,0.951
23,TGCAGGTTTG,0.984
24,TGCATATGTT,1.07
25,TGCATCGGC,1.18
26,TGCATCTCGA,1.02

row,Sequence,switch fluorescence ratio
1,TGCATCTGCC,0.965
2,TGCATGGGCG,0.982
3,TGCATGTAGC,1.03
4,TGCATGTGCT,1
5,TGCATTGTGT,0.992
6,TGCCAAAAGA,0.97
7,TGCCAAGTTT,1.01
8,TGCCACGGTT,0.99
9,TGCCAGATGT,1.02
10,TGCCCCGTGG,1.27
11,TGCCCGAGTG,1.42
12,TGCCCGGGAA,1.04
13,TGCCCTCTAG,1.02
14,TGCCCTGACA,1.04
15,TGCCCTGTAA,1
16,TGCCGAGGGG,1.05
17,TGCCGAGGTA,1.01
18,TGCCGCATAA,5.12
19,TGCCGCCGTG,0.968
